# Test results as given in the supplement of paper PMC8728848.
# This is one part of the list.
# Columns and labels:
# Assay in all cases: glycan array binding signal (z-score within array); higher = stronger binding
# Conditions in all cases: glycan notation: IUPAC condensed, linker removed
# [1] = molecular target: Gal(b1-4)GlcNAc(b1-2)Man(a1-3)[Gal(b1-4)GlcNAc(b1-2)Man(a1-6)]Man(b1-4)GlcNAc(b1-4)[Fuc(a1-6)]GlcNAc
# Outline: (§1)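 Negative Z-scores can be read as non-binding. The Z-score is calculated within each array and then averaged across arrays of one protein sequence at different concentrations or buffers and across linkers. Arrays, 3228 in all, were curated from the Consortium for Functional Glycomics database and kept only where the protein sequence was available.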
# [2] = molecular target: Gal(b1-4)GlcNAc(b1-2)Man(a1-3)[Gal(b1-4)GlcNAc(b1-2)Man(a1-6)][Gal(b1-4)GlcNAc(b1-4)]Man(b1-4)GlcNAc(b1-4)[Fuc(a1-6)]GlcNAc
# Outline: as §1
# [3] = molecular target: Gal(b1-4)GlcNAc(b1-2)Man(a1-3)[Gal(b1-4)GlcNAc(b1-2)Man(a1-6)][GlcNAc(b1-4)]Man(b1-4)GlcNAc(b1-4)[Fuc(a1-6)]GlcNAc
# Outline: as §1
# [4] = molecular target: Gal(b1-4)GlcNAc(b1-2)Man(a1-3)[GlcNAc(b1-2)Man(a1-6)]Man(b1-4)GlcNAc(b1-4)GlcNAc
# Outline: as §1
# [5] = molecular target: Gal(b1-4)GlcNAc(b1-2)Man(a1-3)[GlcNAc(b1-4)][Gal(b1-4)GlcNAc(b1-2)Man(a1-6)]Man(b1-4)GlcNAc(b1-4)GlcNAc
# Outline: as §1
# [6] = molecular target: Gal(b1-4)GlcNAc(b1-2)Man(a1-3)[Man(a1-6)]Man(b1-4)GlcNAc(b1-4)GlcNAc
# Outline: as §1
# [7] = molecular target: Gal(b1-4)GlcNAc(b1-2)Man(a1-6)Man(b1-4)GlcNAc(b1-4)GlcNAc
# Outline: as §1
# [8] = molecular target: Gal(b1-4)GlcNAc(b1-2)Man(a1-6)[GlcNAc(b1-2)Man(a1-3)]Man(b1-4)GlcNAc(b1-4)GlcNAc
# Outline: as §1
# [9] = molecular target: Gal(b1-4)GlcNAc(b1-2)Man(a1-6)[Man(a1-3)]Man(b1-4)GlcNAc(b1-4)GlcNAc
# Outline: as §1
# [10] = molecular target: Gal(b1-4)GlcNAc(b1-2)[Gal(b1-4)GlcNAc(b1-4)]Man(a1-3)[Gal(b1-4)GlcNAc(b1-2)Man(a1-6)]Man(b1-4)GlcNAc(b1-4)GlcNAc
# Outline: as §1
# [11] = molecular target: Gal(b1-4)GlcNAc(b1-2)[Gal(b1-4)GlcNAc(b1-4)]Man(a1-3)[Gal(b1-4)GlcNAc(b1-2)[Gal(b1-4)GlcNAc(b1-6)]Man(a1-6)]Man(b1-4)GlcNAc(b1-4)GlcNAc
# Outline: as §1
# [12] = molecular target: Gal(b1-4)GlcNAc(b1-2)[Gal(b1-4)GlcNAc(b1-4)]Man(a1-3)[GlcNAc(b1-4)][Gal(b1-4)GlcNAc(b1-2)Man(a1-6)]Man(b1-4)GlcNAc(b1-4)GlcNAc
# Outline: as §1
# [13] = molecular target: Gal(b1-4)GlcNAc(b1-2)[Gal(b1-4)GlcNAc(b1-4)]Man(a1-3)[GlcNAc(b1-4)][Gal(b1-4)GlcNAc(b1-2)[Gal(b1-4)GlcNAc(b1-6)]Man(a1-6)]Man(b1-4)GlcNAc(b1-4)GlcNAc
# Outline: as §1
# [14] = molecular target: Gal(b1-4)GlcNAc(b1-2)[Gal(b1-4)GlcNAc(b1-6)]Man(a1-6)[Gal(b1-4)GlcNAc(b1-2)Man(a1-3)]Man(b1-4)GlcNAc(b1-4)GlcNAc
# Outline: as §1
# [15] = molecular target: Gal(b1-4)GlcNAc(b1-2)[Gal(b1-4)GlcNAc(b1-6)]Man(a1-6)[Gal(b1-4)GlcNAc(b1-2)Man(a1-3)]Man(b1-4)GlcNAc(b1-4)[Fuc(a1-6)]GlcNAc
# Outline: as §1
# [16] = molecular target: Gal(b1-4)GlcNAc(b1-2)[Gal(b1-4)GlcNAc(b1-6)]Man(a1-6)[GlcNAc(b1-4)][Gal(b1-4)GlcNAc(b1-2)Man(a1-3)]Man(b1-4)GlcNAc(b1-4)GlcNAc
# Outline: as §1
# [17] = molecular target: Gal(b1-4)GlcNAc(b1-2)[Gal(b1-4)GlcNAc(b1-6)]Man(a1-6)[GlcNAc(b1-4)][Gal(b1-4)GlcNAc(b1-2)[Gal(b1-4)GlcNAc(b1-4)]Man(a1-3)]Man(b1-4)GlcNAc(b1-4)[Fuc(a1-6)]GlcNAc
# Outline: as §1
# [18] = molecular target: Gal(b1-4)GlcNAc(b1-3)Gal(b1-3)GalNAc
# Outline: as §1
# [19] = molecular target: Gal(b1-4)GlcNAc(b1-3)Gal(b1-3)GlcNAc
# Outline: as §1
binder,measurement,setting,value
GS13455A-bfa-343-25-343 (Bacteroides fragilis) (protein) KDEIQIVDQDTSWQMDNKYIEEDIREQLGIDPFTDLVYLGYYGNPYTQLEAINDLVNTTLVGKNELSFKVKVTKPYKEDIKVNLMKEDKLVTDFPEMAEGIPLFPSENCTFEGGVLKAGELETTVKLTLKDVEKLNNLSGYVMAIKLTMEGSHEHLAIARTRSSYFVKLNLSIRLDNIDSSNKKIEGKGFNKEISFKSDIRPDKLGSLNDGNFTANNWYTSNANNYLTIILPEKQSLKGFRLDTNTSPSGSYMLKSCRVMVETPDGNWVNHGVFDRKSMDGIAYISFKKPVECTKVRFENMMAFNGRFSVDVNEVTAFR,glycan array binding signal (z-score),[1],0.019
same,glycan array binding signal (z-score),[2],-0.324
same,glycan array binding signal (z-score),[3],-0.674
same,glycan array binding signal (z-score),[4],-0.46
same,glycan array binding signal (z-score),[5],-0.456
same,glycan array binding signal (z-score),[6],-0.471
same,glycan array binding signal (z-score),[7],-0.182
same,glycan array binding signal (z-score),[8],-0.25
same,glycan array binding signal (z-score),[9],-0.145
same,glycan array binding signal (z-score),[10],0.247
same,glycan array binding signal (z-score),[11],-1.14
same,glycan array binding signal (z-score),[12],0.787
same,glycan array binding signal (z-score),[13],-0.451
same,glycan array binding signal (z-score),[14],-0.11
same,glycan array binding signal (z-score),[15],0.927
same,glycan array binding signal (z-score),[16],-0.409
same,glycan array binding signal (z-score),[17],-0.04
same,glycan array binding signal (z-score),[18],0.107
same,glycan array binding signal (z-score),[19],-0.351
